Results: PubChem BioAssay AID588591 (National Center for Advancing Translational Sciences (NCATS), 2011)
Among all 390,000 compounds or so, about 4,700 (1.2%) were called active. Inconclusive means that the source gave no clear call. Such entries were picked first, then a sample of the others. Calls come from the whole dose curve; as a rule, active = well fitted inhibition curve with a large enough effect; inconclusive = small, poorly fitted or top-dose-only effect, or another doubt; inactive = no such curve, though single readings can be large or run the other way. Potencies beside an inconclusive call are fits to weak or partial responses and may not hold up.

The compounds below were run against DNA polymerase eta (Homo sapiens) (UniProt Q9Y253) (assay: qHTS for Inhibitors of Polymerase Eta). Conditions: recombinant Pol eta, fluorescent DNA replication assay; series mostly up to 114 µM.
UniProt Q9Y253, sequence (Q9Y253 whole entry, looked up): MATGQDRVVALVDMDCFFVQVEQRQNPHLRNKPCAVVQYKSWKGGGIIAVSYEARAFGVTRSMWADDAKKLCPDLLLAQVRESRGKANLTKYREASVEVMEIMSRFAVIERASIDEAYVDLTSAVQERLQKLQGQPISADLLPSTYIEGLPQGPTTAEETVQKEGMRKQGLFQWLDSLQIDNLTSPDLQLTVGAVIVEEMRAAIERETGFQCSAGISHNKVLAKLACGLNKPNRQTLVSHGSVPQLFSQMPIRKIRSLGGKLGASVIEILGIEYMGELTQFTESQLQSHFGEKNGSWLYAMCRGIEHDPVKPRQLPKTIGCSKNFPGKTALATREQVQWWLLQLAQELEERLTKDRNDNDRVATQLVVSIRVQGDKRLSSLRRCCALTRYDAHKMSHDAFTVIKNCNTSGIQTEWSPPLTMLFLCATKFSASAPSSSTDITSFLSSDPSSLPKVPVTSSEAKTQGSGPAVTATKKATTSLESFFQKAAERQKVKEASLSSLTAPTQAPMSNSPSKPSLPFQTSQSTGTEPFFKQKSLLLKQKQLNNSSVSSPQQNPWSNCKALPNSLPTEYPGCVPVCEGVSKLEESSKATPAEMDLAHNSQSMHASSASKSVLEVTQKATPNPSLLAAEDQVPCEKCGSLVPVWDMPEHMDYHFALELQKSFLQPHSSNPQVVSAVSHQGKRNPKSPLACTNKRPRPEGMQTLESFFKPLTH
Method in brief: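 Pol eta (10 nM) was preincubated with compounds for 15 min at room temperature, after which fluorescent replication substrate (50 nM final) was added to start the reaction. Fluorescence was read kinetically at 0 and 10 min.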
Potency is the fitted concentration of half-maximal effect; tags give direction and shape of the fitted curve.

| Compound | Potency |
| --- | --- |
| Cc1cccc(NC(=O)CSC2=Nc3ccccc3C3=NC(CC(=O)NCc4cccs4)C(=O)N23)c1 (stereo unspecified) | inactive |
| Cc1c(C(=O)Nc2ccc(Cc3ccncc3)cc2)cccc1[N+](=O)[O-] | inconclusive: 56.2 µM [inhibitor, partial curve, poor fit] |
| COc1cccc(CNC(=O)N[C@@H](CC(C)C)C(=O)O)c1 | inconclusive: 79.4 µM [inhibitor, partial curve, poor fit] |
| COC(=O)CCCCCc1ccc(C(C)=O)s1 | inconclusive: 100 µM [inhibitor, partial curve, poor fit] |
| O=C(C1CCCCC1)N1CCCc2ccccc21 | inactive |
| CCc1nn(C(C)C(=O)NC(C)CCc2ccco2)c(=O)c2cc3occc3n12 (stereo unspecified) | inconclusive: 35.5 µM [inhibitor, single point] |
| Cc1ccc(-c2cc(C(F)F)n3ncc(C(=O)NCc4ccco4)c3n2)cc1 | inconclusive: 15.8 µM [inhibitor, full curve, poor fit] |
| Cc1ccc(C)c(-n2[nH]c3c4c(ccc3c2=O)C(=O)c2ccccc2C4=O)c1 | inconclusive: 6.31 µM [inhibitor, partial curve, poor fit] |
| C=CCNC(=O)CN1C(=O)CSc2ccc(S(=O)(=O)N3CCOCC3)cc21 | inactive |
| Cc1nnc(N2CCc3ccccc3C2)[nH]c1=O | inconclusive: 89.1 µM [inhibitor, partial curve, poor fit] |
| CCOc1ccc(OCC(=O)Nc2ccc(S(=O)(=O)Nc3cc(C)on3)cc2)cc1 | inconclusive: 100 µM [inhibitor, partial curve] |
| COc1ccc(S(=O)(=O)N2CCN(C(=O)CN3C(=O)NC(C)(c4ccc5ccccc5c4)C3=O)CC2)cc1 (stereo unspecified) | inconclusive: 4.47 µM [inhibitor, partial curve, poor fit] |
| O=C(Cc1ccccc1)Nc1ccc(-c2nnc(-c3ccco3)o2)cc1 | inconclusive: 11.2 µM [inhibitor, full curve, poor fit] |
| O=C(O)/C=C/c1ccc(S(=O)(=O)Nc2ccc3[nH]c(=O)[nH]c3c2)cc1 | active: 25.1 µM |
| Cc1cccc(Nc2nnc(SC/C(O)=C(\C#N)c3nc4ccccc4[nH]3)s2)c1C | inconclusive: 12.6 µM [inhibitor, full curve, poor fit] |
| O=C(N/N=C/c1cccc(O)c1)c1ccc(COc2ccccc2Br)cc1 | inconclusive: 35.5 µM [inhibitor, partial curve, poor fit] |
| CC(=O)c1cc(CC=C(C)C)c(O)c(CC=C(C)C)c1O | inconclusive: 79.4 µM [inhibitor, partial curve, poor fit] |
| COCCCNC(=O)c1cccn2c(=O)c3cc4ccccc4cc3nc12 | inconclusive: 15.8 µM [inhibitor, full curve, poor fit] |
| Cn1c(SCC(=O)N/N=C/C=C/c2ccccc2[N+](=O)[O-])nc2ccccc21 | inconclusive: 28.2 µM [inhibitor, partial curve, poor fit] |
| Cc1ccc(-n2ccc(=O)c(C(=O)Nc3ccc(S(=O)(=O)Nc4nccs4)cc3)n2)cc1 | active: 79.4 µM |
| Cc1c(Cc2ccccc2)c(=O)oc2c(C)c(OCC(=O)N[C@@H](Cc3ccccc3)C(=O)O)ccc12 | active: 50.1 µM |
| CCN(C(=O)COC(=O)c1ccc(=O)n(Cc2ccccc2)n1)C1CCS(=O)(=O)C1 (stereo unspecified) | inactive |

| Compound | Potency |
| --- | --- |
| CC12C(=O)N(c3nccs3)C(=O)C1C1C=CC2C1 (stereo unspecified) | active: 28.2 µM |
| CCCCn1c(N)c(N(CC(C)C)C(=O)c2oc3ccc(Br)cc3c2C)c(=O)[nH]c1=O | active: 79.4 µM |
| CC(/C=C/c1ccccc1)=N\NC(N)=S | inactive |
| Oc1ccc(CCNc2c3ccccc3nc3ccccc23)cc1O | inconclusive: 17.8 µM [inhibitor, full curve, poor fit] |
| Cc1ccc(/C=N/Nc2ccnc3cc(Cl)ccc23)c(C)c1 | inactive |
| Cc1c(C(=O)O)sc2nc3n(c(=O)c12)CCC3 | active: 7.94 µM |
| O=C(CN1C(=O)NC2(CCCC2)C1=O)OCc1ccc(Cl)c(Cl)c1 | inconclusive: 79.4 µM [inhibitor, partial curve, poor fit] |
| O=C(Cc1ccccc1)Nc1cccc(-c2nnc(-c3ccco3)o2)c1 | inconclusive: 35.5 µM [inhibitor, partial curve, poor fit] |
| O=C(Nc1cccc(Cl)c1)c1cc(N=Nc2ccc([N+](=O)[O-])cc2Cl)ccc1O | inconclusive: 28.2 µM [inhibitor, partial curve, poor fit] |
| COc1cc(OC)c(NC(=O)c2ccc3c(c2)N(Cc2ccc(C)cc2)CCS3)cc1Cl | inactive |
| COc1ccc(C(=O)Nc2nc(-c3ccc(OC)cc3)c(-c3ccc([N+](=O)[O-])cc3)s2)cc1 | active: 79.4 µM |
| COc1cc(/C=C2/SC(=S)N(c3c(C)n(C)n(-c4ccccc4)c3=O)C2=O)ccc1O | inconclusive: 50.1 µM [inhibitor, partial curve] |
| O=C(O)CSc1ncnc2sc3c(c12)CCCC3 | inactive |
| Cn1c(=O)oc2cc(S(=O)(=O)NC(Cc3ccccc3)C(=O)NCc3ccccc3Cl)ccc21 (stereo unspecified) | inactive |
| COc1ccccc1NC(=O)N(Cc1cccs1)Cc1cc2cc3c(cc2[nH]c1=O)OCO3 | inconclusive: 5.01 µM [inhibitor, partial curve, poor fit] |
| CN1C2CCC1/C(=C/c1cccn1C)C(=O)/C2=C\c1cccn1C | inconclusive: 56.2 µM [inhibitor, partial curve, poor fit] |
| Cc1ccc([N+](=O)[O-])cc1N=Nc1c(-c2ccc([N+](=O)[O-])cc2)[nH]n(C(N)=S)c1=O | inconclusive: 56.2 µM [inhibitor, partial curve, poor fit] |
| Cc1nc(S/C(=C/c2ccc(-c3cc(Cl)ccc3C)o2)C(=O)O)n[nH]1 | inconclusive: 56.2 µM [inhibitor, partial curve, poor fit] |
| Cc1cc(O)c(/C=N/Nc2ccc(Cl)cc2)c(=O)o1 | inconclusive: 28.2 µM [inhibitor, partial curve, poor fit] |
| COc1cc(/C=N/Nc2nn3cnnc3c3ccccc23)cc(OC)c1OC | inconclusive: 39.8 µM [inhibitor, partial curve] |
| O=C(CSc1nc2ccccc2c(=O)[nH]1)Nc1nc(-c2ccc(Br)cc2)cs1 | active: 5.01 µM |
| COc1ccc(CCCc2nnc(SCC(=O)Nc3ccc(C)cc3)o2)cc1C | inactive |

| Compound | Potency |
| --- | --- |
| C#CCOCCOCCOCCNc1nc(N2CCN(C(=O)[C@H](Cc3ccc(O)cc3)n3cc([C@@H](N)CC(C)C)nn3)CC2)nc(N2CCN(C(=O)[C@H](Cc3cc4ccccc4[nH]3)n3cc([C@@H](N)CC(C)C)nn3)CC2)n1 | inactive |
| O=C(/C=C/c1ccc([N+](=O)[O-])o1)NNC(=O)c1ccc(F)cc1 | active: 79.4 µM |
| Cc1ccc(C)c(SCC(=O)Nc2ccc(S(=O)(=O)Nc3ncccn3)cc2)c1 | active: 50.1 µM |
| CCCSc1nc2sc3c(c2c(=O)n1-c1ccc(C)c(Cl)c1)CCN(C(C)=O)C3 | active: 79.4 µM |
| COc1ccc(NS(=O)(=O)c2ccc(-n3cccn3)cc2)cc1OC | inactive |
| COc1cccc2sc(Nc3nc4ccc(NC(C)=O)cc4s3)nc12 | inconclusive: 10 µM [inhibitor, full curve, poor fit] |
| O=[N+]([O-])c1c(NCCCO)cc(N2CCN(Cc3ccc4c(c3)OCO4)CC2)c2nonc12 | inconclusive: 0.562 µM [inhibitor, full curve, poor fit] |
| CN1C(=O)/C(=C\c2cc(N=Nc3ccccc3)ccc2O)SC1=S | inconclusive: 20 µM [inhibitor, single point] |
| CCOc1ccc(-c2nnc(SCC(=O)Nc3cc(C)ccc3OC)o2)cc1 | inactive |
| N#Cc1cccc(NC(=O)C2CCN(c3nc(-c4ccc(Cl)cc4)no3)CC2)c1 | inactive |
| CCN(CC)S(=O)(=O)c1ccc2oc(Nc3ccccc3)nc2c1 | inconclusive: 12.6 µM [inhibitor, partial curve, poor fit] |
| COc1cc(-c2nc(C(N)=O)c3c(n2)n(-c2cccc(C)c2)c(=O)n3C)cc(OC)c1OC | inactive |
| Cc1ccc(C(=O)N/C(=C/c2ccco2)C(=O)NCc2ccco2)cc1 | active: 31.6 µM |
| COc1ccccc1N1CCN(C(=O)c2ccc(Nc3nc4ccccc4n4nnnc34)cc2)CC1 | inconclusive: 100 µM [inhibitor, partial curve, poor fit] |
| Oc1ccc(C[C@H]2CNCCN2CCc2cc(C(F)(F)F)cc(C(F)(F)F)c2)cc1 | inconclusive: 89.1 µM [inhibitor, partial curve, poor fit] |
| CCOc1cc(/C=N/NC(=O)c2nnn(-c3nonc3N)c2C)ccc1OCc1ccc(F)cc1 | inactive |
| c1ccc2c(c1)nc(Nc1ccc3c(c1)OCO3)c1nnnn12 | inconclusive: 7.08 µM [inhibitor, partial curve, poor fit] |
| O=[N+]([O-])CC(=Nc1ccc(Cl)cc1)N/N=C\c1oc(O)c2ccccc12 | active: 39.8 µM |
| CCn1cc(-c2cc(C(=O)O)c3ccccc3n2)c(C)n1 | inconclusive: 44.7 µM [inhibitor, partial curve, poor fit] |
| O=C(NCCCn1ccnc1)c1sc2cc([N+](=O)[O-])ccc2c1Cl | inactive |
| Cc1ccc(CCNC(=O)CN(c2ccc(C(C)C)cc2)S(=O)(=O)c2c(C)nn(C)c2C)cc1 | inactive |
| O=C(O)c1ccc2c3c(ncnc13)-c1ccccc1C2=O | inconclusive: 22.4 µM [inhibitor, single point] |
